# Reference: PubChem BioAssay (NCATS)
# Values joined by “and” are separate entries in the source; they are usually repeats but may differ in a detail not shown here. Equal values may be shown once. Inconclusive results, whose numbers are uncertain, are shown with a selection of clear calls. Where the call is inconclusive, the potency comes from a doubtful curve fit. Active and inactive are the calls of the source. Calls come from the whole dose curve; as a rule, active = well fitted inhibition curve with a large enough effect; inconclusive = small, poorly fitted or top-dose-only effect; inactive = flat fitted curve, though single readings scatter.
# Target: Ubiquitin carboxyl-terminal hydrolase 1 (Homo sapiens) (UniProt O94782)
# UniProt O94782, sequence (O94782 whole entry, looked up): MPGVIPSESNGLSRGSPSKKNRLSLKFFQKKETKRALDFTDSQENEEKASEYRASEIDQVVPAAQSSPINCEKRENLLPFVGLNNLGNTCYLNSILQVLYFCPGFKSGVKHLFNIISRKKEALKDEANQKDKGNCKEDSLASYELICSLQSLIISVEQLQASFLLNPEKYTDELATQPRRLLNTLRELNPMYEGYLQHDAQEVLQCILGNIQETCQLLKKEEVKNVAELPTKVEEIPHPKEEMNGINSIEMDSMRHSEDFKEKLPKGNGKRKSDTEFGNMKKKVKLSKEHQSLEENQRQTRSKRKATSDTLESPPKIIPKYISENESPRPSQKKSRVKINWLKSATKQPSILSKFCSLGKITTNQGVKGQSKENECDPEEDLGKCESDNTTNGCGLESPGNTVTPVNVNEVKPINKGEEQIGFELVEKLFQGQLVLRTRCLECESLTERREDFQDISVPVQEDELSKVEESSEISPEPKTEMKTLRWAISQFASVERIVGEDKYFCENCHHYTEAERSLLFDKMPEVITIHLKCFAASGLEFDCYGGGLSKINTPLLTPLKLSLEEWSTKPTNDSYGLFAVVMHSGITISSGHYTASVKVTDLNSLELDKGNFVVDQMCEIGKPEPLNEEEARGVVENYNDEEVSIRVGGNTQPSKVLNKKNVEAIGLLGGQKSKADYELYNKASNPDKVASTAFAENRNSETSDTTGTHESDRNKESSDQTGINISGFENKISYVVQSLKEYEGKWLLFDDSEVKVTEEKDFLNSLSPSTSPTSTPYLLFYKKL
# Assay: Inhibitors of USP1/UAF1: Pilot qHTS (AID 504865);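 note: rhodamine fluorescence freed from ubiquitin-rhodamine substrate followed over time; nearly all actives have a fitted effect of over 35% in size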; for activity change, negative = inhibition: top concentration of the series differs between compounds
# Settings: purified USP1/UAF1, Ub-rhodamine cleavage fluorescence; series mostly up to 114 µM; activity change, negative = inhibition: at the top concentration
# From the text: Deubiquitinating enzymes (DUBs) are a class of enzymes that can cleave isopeptide bond formed between the C-terminal carboxylate of ubiquitin and a lysine side-chain amino group on the target protein. Among them, ubiquitin specific proteases (USPs) constitute the largest DUB family. Human USPs are emerging as promising targets for pharmacological intervention because of their connection to a number of human diseases, including prostate, colon and breast cancer (1, 2), pediatric acute lymphoblastic leukemia (3), and familial cylindromatosis (4). The advantage of inhibiting USPs lies in the potential specificity of therapeutic intervention that can lead to better efficacy and reduce nonspecific side effects.
# In a collaboration between the University of Delaware and the NIH Chemical Genomics Center, a high-throughput screen assay was developed to screen for USP1/UAF1 inhibitors. This miniaturized assay has a fluorescent read-out and is used to screen the NIH Molecular Libraries Small Molecule Repository (MLSMR) in order to identify a small molecule that inhibits USP1.
# NIH Chemical Genomics Center [NCGC]
# NIH Molecular Libraries Probe Centers Network [MLPCN]
# Assay Submitter (PI): Zhihao Zhuang, University of Delaware
# 1. Priolo, C., et al. (2006) The isopeptidase USP2a protects human prostate cancer from apoptosis. Cancer Res 66, 8625-8632
# 2. Popov, N., et al. (2007) The ubiquitin-specific protease USP28 is required for MYC stability. Nat Cell Biol 9, 765-774
# 3. De Pitta, C., et al. (2005) A leukemia-enriched cDNA microarray platform identifies new transcripts with relevance to the biology of pediatric acute lymphoblastic leukemia. Haematologica 90, 890-898
# 4. Kovalenko, A., et al. (2003) The tumour suppressor CYLD negatively regulates NF-kappaB signalling by deubiquitination. Nature 424, 801-805
# 3 microliters of reagents (buffer in columns 3 and 4 as negative control and 1nM USP1/UAF1 complex in columns 1, 2, and 5-48) are dispensed into Greiner black solid bottom 1536-well assay plates. Compounds are then transferred via Kalypsys pin tool equipped with 1536-pin array (10nl slotted pins, V&P Scientific, San Diego, CA). Following an incubation step of 15 min at room temperature, 1ul of Ub-Rho substrate (150nM final concentration) is added to initiate the reaction. The plates are immediately centrifuged at 1000 rpm for 15 seconds, and subsequently transferred to a ViewLux high-throughput CCD imager (PerkinElmer) wherein kinetic measurements of fluorescence are acquired using 480 nm excitation/540 nm emission filter set (6 reads every 60 seconds, see Table 1). All reagents are diluted in an assay buffer consisting of 50mM HEPES (pH 7.8), 0.5mM EDTA, 0.1 mg/ml BSA, 1mM TCEP, and 0.01% Tween-20.
# % is set by controls: 0 for no effect and ±100 for the full control effect; potency is the fitted concentration of half-maximal effect; tags give direction and shape of the fitted curve.
Structure (SMILES),Potency,"activity change, negative = inhibition"
Ic1ccc(N2CCN(Cc3c[nH]c4ncccc34)CC2)cc1,active: 50.1 µM,–
Cc1cccc(C)c1NC(=O)C(C)N (stereo not given),–,inactive: -0.622%
Cn1cnc2c(NCc3ccccc3)nc(NCCO)nc21,–,inactive: 2.41%
CC(C)(C)[C@]1(O)CCN2C[C@H]3c4ccccc4CCc4cccc(c43)[C@@H]2C1,"inconclusive: 35.5 µM [inhibitor, full curve, poor fit]",–
CC(C)CCCCCCc1ccc(O)cc1,"inconclusive: 39.8 µM [inhibitor, partial curve]",–
CC(C)NCC(O)c1cc(O)cc(O)c1 (stereo not given),–,inactive: 0.803%
CC(=O)CCCCn1c(=O)c2c(ncn2C)n(C)c1=O,inactive,–
Cc1nc(N=Nc2cc(S(=O)(=O)O)c3cc([N+](=O)[O-])cc(S(=O)(=O)O)c3c2)c(COP(=O)(O)O)c(C=O)c1O,active: 50.1 µM and active: 39.8 µM,–
CN1CCC(OC(=O)C(Oc2ccc(Cl)cc2)Oc2ccc(Cl)cc2)CC1,"inconclusive: 100 µM [inhibitor, partial curve, poor fit]",–
Cn1ncc(S(=O)(=O)Cc2ccccc2)c(Br)c1=O,active: 12.6 µM,–
CCCCOC(=O)NS(=O)(=O)c1sc(CC(C)C)cc1-c1ccc(Cn2c(CC)nc3c(C)cc(C)nc32)cc1,active: 56.2 µM,–
CCCCCCC/C=C\CCCCCCCCC(=O)O,active: 39.8 µM,–
CN(C)CCCN1c2ccccc2Sc2ccc(C(F)(F)F)cc21,"inconclusive: 35.5 µM [inhibitor, partial curve, poor fit] and inconclusive: 50.1 µM [inhibitor, partial curve] and inconclusive: 79.4 µM [inhibitor, partial curve, poor fit]",–
CCN(CC)C(=O)c1cccnc1,–,inactive: -4.35%
CCCOC(=O)c1c(-c2ccccc2)nc(CC)c(C(=O)SCC)c1CCC,"inconclusive: 39.8 µM [inhibitor, partial curve, poor fit]",–
N#CC(=C(/N)Sc1ccccc1N)/C(C#N)=C(/N)Sc1ccccc1N,"inconclusive: 35.5 µM [inhibitor, partial curve]",–
C[C@H](NC(=O)/C(C#N)=C/c1ccc(O)c(O)c1)c1ccccc1,"inconclusive: 50.1 µM [inhibitor, partial curve, poor fit] and inactive",–
CC(=O)/C(C)=N/O,–,inactive: 10.4%
CCCCCC(O)c1cccc(OCc2ccc3ccccc3n2)c1 (stereo not given),"inconclusive: 50.1 µM [inhibitor, partial curve]",–
C=CC[N+]1([C@H]2C[C@H]3[C@@H]4CC[C@H]5C[C@H](O)[C@@H](N6CCOCC6)C[C@]5(C)[C@H]4CC[C@]3(C)[C@H]2OC(C)=O)CCCC1,–,inactive: -2.84%

Structure (SMILES),Potency,"activity change, negative = inhibition"
Cc1c(I)c(=O)n(-c2ccccc2)n1C,–,inactive: -7.33%
O=C(OCCOCCO)c1ccccc1Nc1cccc(C(F)(F)F)c1,"inconclusive: 31.6 µM [inhibitor, partial curve]",–
Cc1c(C)c2c(c(C)c1O)CC[C@@](C)(CCC[C@H](C)CCC[C@H](C)CCCC(C)C)O2,"inconclusive: 3.98 µM [inhibitor, full curve, poor fit]",–
CCCCNC(=O)NS(=O)(=O)c1ccc(N)cc1,–,inactive: -4.88%
CCCCCCCCCCCCCCCCN,–,inactive: -3.33%
Cc1ncc(COP(=O)(O)O)c(CN)c1O,–,inactive: -8.21%
CCCCCCCCCCC(CO)CCCCCCCC (stereo not given),"inconclusive: 20 µM [inhibitor, full curve]",–
CC(C)(C)c1ccc(/C=C/C(=O)Nc2ccc3c(c2)OCCO3)cc1,"inconclusive: 39.8 µM [inhibitor, partial curve]",–
CC1(COc2ccc(CC3SC(=O)NC3=O)cc2)CCCCC1 (stereo not given),active: 20 µM,–
COc1cc(/C=C(\C#N)C(=O)c2ccc(O)c(O)c2)cc(I)c1O,active: 50.1 µM,–
Cc1nc2c([nH]1)c(=O)n(C)c(=O)n2Cc1ccco1,"inconclusive: 79.4 µM [inhibitor, partial curve]",–
COc1cc(/C=C(\C#N)C(=O)Nc2nnc(C(F)(F)F)s2)ccc1OCc1ccc(C(F)(F)F)cc1C(F)(F)F,active: 50.1 µM,–
CC(C)(C)c1ccc(C(O)CCCN2CCC(C(O)(c3ccccc3)c3ccccc3)CC2)cc1 (stereo not given),"inconclusive: 35.5 µM [inhibitor, partial curve] and inconclusive: 25.1 µM [inhibitor, partial curve] and inconclusive: 56.2 µM [inhibitor, partial curve, poor fit]",–
O=C(O)Cn1c(C(=O)Nc2nc(-c3ccccc3Cl)cs2)cc2ccccc21,active: 79.4 µM,–
Oc1ccc2c(c1)OCC1(O)Cc3cc(O)c(O)cc3C21 (stereo not given),active: 79.4 µM,–
COC(=O)c1c(C)[nH]c(C)c1C(=O)c1ccccc1Cc1ccccc1,"inconclusive: 44.7 µM [inhibitor, partial curve, poor fit]",–
C=CC[C@H](N)C(=O)O,"inconclusive: 5.97 µM [inhibitor, partial curve, poor fit]",–
CCC(Cc1c(I)cc(I)c(O)c1I)C(=O)O (stereo not given),"inconclusive: 63.1 µM [inhibitor, partial curve, poor fit]",–
CC(C)(C)c1cc(/C=C(\C#N)C(N)=S)cc(C(C)(C)C)c1O,"inconclusive: 63.1 µM [inhibitor, partial curve, poor fit]",–
Nc1ccc2c3c(cccc13)C(=O)NC2=O,active: 25.1 µM,–
